Measured values reported in PubChem BioAssay AID1745853 (National Center for Advancing Translational Sciences (NCATS), 2022).
The list shows a part of the results. Shown are side measurements of this screen, not its main read-out; they come without a call.

Columns and labels:
Assay in all cases: Primary Screen for Target Class Profiling of Small Molecule Inhibitors of Methyltransferases
[1] = target: Glycine N-methyltransferase (Homo sapiens) (UniProt Q14749); conditions: purified enzyme, MTase-Glo SAH luminescence; measured here: GNMT inhibition; at 40 µM; stronger effect = lower value
Procedure, shortened: (§1)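 Each enzyme was assayed with SAM and its substrate. SAH formation detected by MTase-Glo luminescence; single-point 40 uM screen[…].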

[2] = target: Guanidinoacetate N-methyltransferase (Homo sapiens) (UniProt Q14353); conditions: purified enzyme, MTase-Glo SAH luminescence; measured here: GAMT inhibition; at 40 µM; stronger effect = lower value
Procedure, shortened: as §1

[3] = target: Histamine N-methyltransferase (Homo sapiens) (UniProt P50135); conditions: purified enzyme, MTase-Glo SAH luminescence; measured here: HNMT inhibition; at 40 µM; stronger effect = lower value
Procedure, shortened: as §1

[4] = target: Nicotinamide N-methyltransferase (Homo sapiens) (UniProt P40261); conditions: purified enzyme, MTase-Glo SAH luminescence; measured here: NNMT inhibition; at 40 µM; stronger effect = lower value
Procedure, shortened: as §1

[5] = target: Phenylethanolamine N-methyltransferase (Homo sapiens) (UniProt P11086); conditions: purified enzyme, MTase-Glo SAH luminescence; measured here: PNMT inhibition; at 40 µM; stronger effect = lower value
Procedure, shortened: as §1
% is scaled to controls: 0 for no effect and ±100 for the full control effect.

SMILES	activity change, negative = inhibition [1] [%]	activity change, negative = inhibition [2] [%]	activity change, negative = inhibition [3] [%]	activity change, negative = inhibition [4] [%]	activity change, negative = inhibition [5] [%]
Oc1ccc(Cn2cc[nH]c2=S)cc1	-21.1	10.8	4.96	-5.79	5.02
CCc1ccc(NC(=O)Cn2nc3n(Cc4ccc(C)cc4)c(=O)c4ccccc4n3c2=O)cc1	3.77	0	5.46	3.11	2.26
CCc1ccc(NC(=O)Cn2nc3n(CCc4ccccc4)c(=O)c4ccccc4n3c2=O)cc1	4.41	0.667	6.35	6.98	3.4
COCCN1C(=O)c2ccccc2C(C(=O)Nc2cc(C)ccn2)C12CCCC2 (stereo not given)	-7.26	-11.5	-4.33	-5.3	-11.5
O=C1N(Cc2cccc(F)c2F)CCCC1(O)CN1CCNCC1 (stereo not given)	-0.256	-9.99	-1.85	-11.8	-4.85
CC(c1ncncc1F)C(O)(Cn1cncn1)c1ccc(F)cc1F (stereo not given)	4.57	–	0.832	–	–
Cc1nc(-c2c3n(c(=O)n(CC#N)c2=O)CCCCC3)no1	-1.66	-3.78	-0.529	-1.25	-0.855
CC(C)c1cc2n(n1)CC(C)(C(=O)NC1CCCCCC1)N(Cc1ccc(Cl)cc1)C2=O (stereo not given)	-4.04	2.15	0.234	-6.16	-1.77
Cc1ccc(CSc2nnc3n(CCC(C)C)c(=O)c4ccccc4n23)cc1	0.902	3.93	6.89	-1.95	7.19
O=C(NC/C=C/CN1CCN(c2cccc(Cl)c2Cl)CC1)c1ccc(-c2ccccn2)cc1	1.64	-1.26	0.727	-32.9	-15.1
C[C@@H]1C(=O)O[C@H]2CC34[C@H]5C[C@@H](C(C)(C)C)C36[C@@H](OC(=O)[C@@H]6O)O[C@@]4(C(=O)O5)[C@]21O (stereo not given in full)	-1.01	-3.05	-0.444	-13.1	0.868
O=c1n(-c2ccc(C(F)(F)F)cc2)nc2n1CCN([S+](=O)([O-])c1ccccc1)C2	-3.8	-6.91	-3.67	-5.05	-3.8
COc1ccccc1N1CCN(CCN(C(=O)c2ccc(F)cc2)c2ccccn2)CC1	-0.287	10.6	5.87	-2.63	6.74
c1ccc(-c2ccccn2)nc1	-9.62	-0.33	-3.37	-8.94	1.05
O=C(O)c1ccc2c(c1)nc(Nc1cccc(Cl)c1)c1ccncc12	-67.2	-39	-72.3	-50.3	-53
Cc1ccc(NS(=O)(=O)c2cc3c(cc2Cl)n(C)c(=O)n3C)c(C)c1	2.37	0	-6.87	-6.18	-2.84
COc1ccc2cc3n(c2c1)CC(C)(C(=O)NC1CCCC1)N(CCc1ccc(Cl)cc1)C3=O (stereo not given)	-4.58	0.174	-4.67	-9.51	-8.66
CCCn1c(=O)c2cc(Cl)ccc2n2c(SCC(=O)Nc3cc(F)ccc3F)nnc12	-7.94	3.22	6.34	-3.07	-0.101
CNC(=O)c1ccc(-c2cnc3cnc(C(=O)N(C)c4ccc(Cl)cc4)cn23)cc1	–	-35.8	–	-42.5	-46
CC1(C(=O)NCc2ccc(Cl)cc2)Cn2c(ccc2-c2ccco2)C(=O)N1CCc1ccco1 (stereo not given)	-15.2	-0.333	4.31	-9.88	-2.3
CCNC(=O)c1cc2n(n1)CC(C)(C(=O)NCc1ccc(F)cc1)N(C)C2=O (stereo not given)	1.18	-0.446	-4.96	0.975	-3.13
COC(=O)c1ccc(CN2C[C@@H]3C(C)(C)COc4ccc(OC)cc4[C@]3(CO)C2)cc1	-5.25	-0.079	-2.75	-8.22	-1.93
Cc1ccc(N2C(=O)c3cc(C(C)(C)C)nn3CC2(C)C(=O)NCc2ccccc2)cc1C (stereo not given)	3.94	0	2.43	1.84	0.896
COc1ccc(Cl)cc1NC(=O)Cn1nc2cc(C)nc(Nc3ccccc3)n2c1=O	1.13	7.9	-2.86	-5.2	-2.18
CC(C)C1c2cccn2CCN1C(=O)NCCc1ccccc1 (stereo not given)	13.1	3.73	-6.66	5.9	8.89
CC(C)C[C@H](NC(=O)C1OC1C(=O)O)C(=O)NCCCCN=C(N)N (stereo not given in full)	-9.15	1.05	-2.9	-4.35	5.57
O=[S+]1([O-])N(c2ccccc2)C[C@@H](O)[C@]12CCN(Cc1ccc(C(F)(F)F)nc1)C2	-4.44	-1.76	-0.871	-10.3	-22.5
CC(C)Oc1ccc(CN2C(=O)c3cc4occc4n3CC2(C)C(=O)NC2CCCCCC2)cc1 (stereo not given)	-0.785	-29.4	2.5	-4.18	-4.48
O=C(c1ccc2c(=O)nc3c(-c4cccc(F)c4)n[nH]n3c2c1)N1CCN(c2ccc(F)cc2)CC1	-22.4	0	-0.391	-6.67	-1.82
O=C(c1ccc(C(F)(F)F)cc1)N1CCCC(C(=O)N2CCC(N3Cc4cccn4C3=O)CC2)C1 (stereo not given)	-7.8	-12.8	-6.24	-14.6	-6.41
